The other results are listed elsewhere or left out.
Key:
HSkMC = human skeletal muscle cells; experiment: cytotoxicity call (relative viability < 0.9); details: 10 µM
HepG2 = experiment: cytotoxicity call (relative viability < 0.9); details: 10 µM
S. aureus RN4220 = experiment: growth inhibition call (relative growth <= 0.2); details: 50 µM

SMILES: COC(=O)[C@@H]1[C@@H](CO)[C@@H]2Cn3c(ccc(C4=CCCC4)c3=O)[C@H]1N2S(=O)(=O)c1cn(C)cn1
- cytotoxicity call (HSkMC): inactive
- cytotoxicity call (HepG2): inactive
- growth inhibition call (S. aureus RN4220): inactive

SMILES: C[C@@H]1C(=O)NC[C@@H]2CN(CC3CC3)C[C@@H]21
- cytotoxicity call (HSkMC): inactive
- cytotoxicity call (HepG2): inactive
- growth inhibition call (S. aureus RN4220): inactive

SMILES: C[C@@H]1CN([C@@H](C)CO)C(=O)c2c(c3ccccc3n2C)-c2ccccc2CO[C@H]1CN(C)C(=O)Oc1ccccc1
- cytotoxicity call (HSkMC): inactive
- cytotoxicity call (HepG2): inactive
- growth inhibition call (S. aureus RN4220): inactive

SMILES: CCN1C[C@H]2C[C@H](C(=O)NCC3CC3)[C@@H](C1)O2
- cytotoxicity call (HSkMC): inactive
- cytotoxicity call (HepG2): inactive
- growth inhibition call (S. aureus RN4220): inactive

SMILES: CCOC(=O)c1c(CN2CCN(c3ccccc3)CC2)n(Cc2ccccc2)c2cc(Br)c(O)cc12
- cytotoxicity call (HSkMC): active
- cytotoxicity call (HepG2): inactive
- growth inhibition call (S. aureus RN4220): inactive

SMILES: CN(C)C(=O)CN1CCN(C)C(=O)[C@]12CCN(c1ncccn1)C2
- cytotoxicity call (HSkMC): inactive
- cytotoxicity call (HepG2): inactive
- growth inhibition call (S. aureus RN4220): inactive

SMILES: C1CCC(NC2CCCC2)CC1
- cytotoxicity call (HSkMC): inactive
- cytotoxicity call (HepG2): inactive
- growth inhibition call (S. aureus RN4220): inactive

SMILES: Oc1ccc(Cl)cc1
- cytotoxicity call (HSkMC): inactive
- cytotoxicity call (HepG2): inactive
- growth inhibition call (S. aureus RN4220): inactive

SMILES: CC=Cc1ccc2c(c1)OCO2
- cytotoxicity call (HSkMC): inactive
- cytotoxicity call (HepG2): inactive
- growth inhibition call (S. aureus RN4220): inactive

SMILES: CN[C@@H]1[C@@H](O)[C@@H](O[C@@H]2[C@H](O)[C@@H](O[C@H]3O[C@H]([C@@H](C)O)[C@@H](O)[C@H](O)[C@H]3N)[C@H](N)C[C@@H]2N)OC[C@]1(C)O
- cytotoxicity call (HSkMC): inactive
- cytotoxicity call (HepG2): inactive
- growth inhibition call (S. aureus RN4220): inactive

SMILES: Nc1c[n+](CCc2ccccc2)no1
- cytotoxicity call (HSkMC): inactive
- cytotoxicity call (HepG2): inactive
- growth inhibition call (S. aureus RN4220): inactive

SMILES: COc1cccc(-c2ccc3c(CCN)c[nH]c3c2)c1
- cytotoxicity call (HSkMC): inactive
- cytotoxicity call (HepG2): active
- growth inhibition call (S. aureus RN4220): inactive

SMILES: O=C1C=C2C(=CCOC2O)O1 (configuration not stated)
- cytotoxicity call (HSkMC): active
- cytotoxicity call (HepG2): active
- growth inhibition call (S. aureus RN4220): active

SMILES: CN1CC2(CNC2)OCCS1(=O)=O
- cytotoxicity call (HSkMC): inactive
- cytotoxicity call (HepG2): inactive
- growth inhibition call (S. aureus RN4220): inactive

SMILES: CCOP(=S)(OCC)Oc1ccc2c(C)c(Cl)c(=O)oc2c1
- cytotoxicity call (HSkMC): inactive
- cytotoxicity call (HepG2): inactive
- growth inhibition call (S. aureus RN4220): inactive

SMILES: c1cncc(N2CCNCC2)c1
- cytotoxicity call (HSkMC): inactive
- cytotoxicity call (HepG2): inactive
- growth inhibition call (S. aureus RN4220): inactive

SMILES: CC1=C2C3OC(=O)C(C)C3CCC2(C)C=CC1=O (configuration not stated)
- cytotoxicity call (HSkMC): inactive
- cytotoxicity call (HepG2): inactive
- growth inhibition call (S. aureus RN4220): inactive

SMILES: O=C1C=C2C(=CCO[C@@H]2O)O1
- cytotoxicity call (HSkMC): inactive
- cytotoxicity call (HepG2): inactive
- growth inhibition call (S. aureus RN4220): inactive

SMILES: CC=C1CC(C)C(O)(CO)C(=O)OCC2=CCN3CCC(OC1=O)C23 (configuration not stated)
- cytotoxicity call (HSkMC): inactive
- cytotoxicity call (HepG2): inactive
- growth inhibition call (S. aureus RN4220): inactive

SMILES: CC1(C)[C@@H](C=C(Br)Br)[C@@H]1C(=O)O[C@@H](C#N)c1cccc(Oc2ccccc2)c1
- cytotoxicity call (HSkMC): inactive
- cytotoxicity call (HepG2): inactive
- growth inhibition call (S. aureus RN4220): inactive

SMILES: O=C(O)C[C@@H]1CC[C@H]2NC[C@H](O)COC[C@@H]2O1
- cytotoxicity call (HSkMC): inactive
- cytotoxicity call (HepG2): inactive
- growth inhibition call (S. aureus RN4220): inactive

SMILES: Oc1ccc(Cl)cc1Cc1cc(Cl)ccc1O
- cytotoxicity call (HSkMC): inactive
- cytotoxicity call (HepG2): active
- growth inhibition call (S. aureus RN4220): inactive

SMILES: CCCCSP(=O)(SCCCC)SCCCC
- cytotoxicity call (HSkMC): inactive
- cytotoxicity call (HepG2): inactive
- growth inhibition call (S. aureus RN4220): inactive

SMILES: CN(C)Cc1c[nH]c2ccccc12
- cytotoxicity call (HSkMC): inactive
- cytotoxicity call (HepG2): inactive
- growth inhibition call (S. aureus RN4220): inactive

SMILES: CCC1CN2CCC1CC2C(O)c1ccnc2ccc(OC)cc12 (configuration not stated)
- cytotoxicity call (HSkMC): inactive
- cytotoxicity call (HepG2): active
- growth inhibition call (S. aureus RN4220): inactive

SMILES: CC(C)c1cccc(C(C)C)c1O
- cytotoxicity call (HSkMC): inactive
- cytotoxicity call (HepG2): active
- growth inhibition call (S. aureus RN4220): inactive

SMILES: C[C@H](CO)N1C[C@H](C)[C@H](CN(C)C(=O)Oc2ccccc2)OCc2ccccc2-c2c(n(C)c3ccccc23)C1=O
- cytotoxicity call (HSkMC): inactive
- cytotoxicity call (HepG2): inactive
- growth inhibition call (S. aureus RN4220): inactive

SMILES: CCOc1ccc(CN)cn1
- cytotoxicity call (HSkMC): inactive
- cytotoxicity call (HepG2): inactive
- growth inhibition call (S. aureus RN4220): inactive

SMILES: CN1CCCN(Cc2ccc(CN)cc2)CC1
- cytotoxicity call (HSkMC): inactive
- cytotoxicity call (HepG2): inactive
- growth inhibition call (S. aureus RN4220): inactive

SMILES: Cl.c1cncc(C2CCCCN2)c1 (configuration not stated)
- cytotoxicity call (HSkMC): inactive
- cytotoxicity call (HepG2): inactive
- growth inhibition call (S. aureus RN4220): inactive

SMILES: O=C1C[C@H](c2ccccc2)[C@@H]2CNCCN12
- cytotoxicity call (HSkMC): inactive
- cytotoxicity call (HepG2): inactive
- growth inhibition call (S. aureus RN4220): inactive

SMILES: C1CCNCC1
- cytotoxicity call (HSkMC): inactive
- cytotoxicity call (HepG2): inactive
- growth inhibition call (S. aureus RN4220): inactive

SMILES: Cn1cc(CN2C[C@H]3CNC[C@H]3C2)cn1
- cytotoxicity call (HSkMC): inactive
- cytotoxicity call (HepG2): inactive
- growth inhibition call (S. aureus RN4220): inactive

SMILES: CC(C)[N+](C)(CCC(C(N)=O)(c1ccccc1)c1ccccc1)C(C)C.[I-]
- cytotoxicity call (HSkMC): inactive
- cytotoxicity call (HepG2): inactive
- growth inhibition call (S. aureus RN4220): inactive

SMILES: Br.COC(=O)C1=CCCN(C)C1
- cytotoxicity call (HSkMC): inactive
- cytotoxicity call (HepG2): active
- growth inhibition call (S. aureus RN4220): inactive

SMILES: CN1C(=O)[C@@]23C[C@]4([C@@]56C[C@]78SS[C@](CO)(C(=O)N7[C@@H]5Nc5ccccc56)N(C)C8=O)c5ccccc5N[C@H]4N2C(=O)[C@@]1(CO)SS3
- cytotoxicity call (HSkMC): active
- cytotoxicity call (HepG2): active
- growth inhibition call (S. aureus RN4220): active

SMILES: COc1cccc2c1C(=O)c1c(O)c3c(c(O)c1C2=O)C[C@@](O)(C(=O)CO)C[C@@H]3O[C@H]1C[C@H](N2CCO[C@H](OC)C2)[C@H](O)[C@H](C)O1
- cytotoxicity call (HSkMC): active
- cytotoxicity call (HepG2): active
- growth inhibition call (S. aureus RN4220): active

SMILES: Cc1cc(O)ccc1Cl
- cytotoxicity call (HSkMC): inactive
- cytotoxicity call (HepG2): active
- growth inhibition call (S. aureus RN4220): inactive

SMILES: CC1(C)C(=O)C=CC2(C)C1=C(O)C(=O)C1(C)C2CCC2(C)C(c3ccoc3)CC3OC321 (configuration not stated)
- cytotoxicity call (HSkMC): active
- cytotoxicity call (HepG2): active
- growth inhibition call (S. aureus RN4220): inactive
